Assay results from the supplement of paper PMC12217912.
Some of the results follow. The full chains were built here from the parent and the listed change. Values near 0.05 are background.

B1: TEV protease; numbered along this chain (parent)
chain: MGESLFKGPRDYNPISSSICHLTNESDGHTTSLYGIGFGPFIITNKHLFRRNNGTLVVQSLHGVFKVKDTTTLQQHLVDGRDMIIIRMPKDFPPFPQKLKFREPQREERICLVTTNFQTKSMSSMVSDTSCTFPSGDGIFWKHWIQTKDGQCGSPLVSTRDGFIVGIHSASNFTNTNNYFTSVPKNFMELLTNQEAQQWVSGWRLNADSVLWGGHKVFMVKPEEPFQPVKEATQL

Variants of: B1
Test: raw area under fraction-flipped curve 0-4 h after induction (AUC4h, not background-subtracted), DNA-recorder readout of cleavage of the substrate (dimensionless); higher = more cleavage of the substrate by the protease variant
Details: temperature: 34 °C; time window: 0-4 h after rhamnose induction
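Note: Bxb1 expression induced with 0.2% (w/v) L-rhamnose at OD600 near 0.5, cultures sampled hourly, flipped fraction per protease–substrate barcode pair counted by paired-end Illumina sequencing.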

Variant	area with substrate ENAYFQS	area with substrate ENFYFQS	area with substrate ENQYFQS	area with substrate ENCYFQS	area with substrate ENDYFQS	area with substrate ENEYFQS	area with substrate ENGYFQS	area with substrate ENIYFQS	area with substrate ENKYFQS	area with substrate ENNYFQS
G213H	0.0412	0.0634	0.0353	–	–	–	–	–	–	–
H215K	0.0465	0.0797	0.0617	0.065	0.0616	0.0589	0.0572	0.0583	0.0652	0.0558
H215L	0.0381	0.0891	0.0637	–	0.067	–	0.0569	0.0838	–	–
F218I	0.0838	0.0556	0.0644	0.0394	–	–	0.0589	–	0.0691	–
F218V	0.0372	–	0.0563	0.0686	0.065	0.0698	–	–	–	–
P222L	0.0483	0.0664	–	0.0764	0.0423	–	0.0583	0.106	–	0.0647
Q227D	0.0792	0.0542	0.0601	0.0748	0.0632	–	–	–	0.0582	–
P228R	0.0531	0.0578	0.0613	–	0.0731	0.0492	0.041	–	0.0299	–
P228S	0.0704	0.0629	0.0137	–	0.0584	0.0529	–	–	0.0556	0.0564
V229D	0.0446	–	0.0732	–	0.0524	0.0494	0.0536	0.159	–	–
V229R	0.059	–	–	–	0.0642	0.052	–	0.0943	0.0815	–
E231I	0.0495	0.0419	0.0626	0.0725	–	0.0577	–	0.098	0.0439	–
T233Y	0.062	–	0.0629	0.0901	0.0603	–	–	0.0707	–	–
L235F	0.0691	–	–	0.0674	–	0.0536	–	–	–	–
L235P	0.0496	–	–	0.0812	0.0414	0.0694	–	–	–	0.0668
L235T	0.0594	–	0.0561	0.0644	0.0535	0.0523	–	0.103	0.0659	–
G2I	–	0.0518	0.0613	0.0734	0.0566	0.047	–	–	–	0.0576
G2K	–	–	0.0531	0.0733	0.0655	–	–	–	–	–
E3V	–	–	–	0.0892	–	–	–	–	–	–

Variant	area with substrate ENAYFQS	area with substrate ENFYFQS	area with substrate ENQYFQS	area with substrate ENCYFQS	area with substrate ENDYFQS	area with substrate ENEYFQS	area with substrate ENGYFQS	area with substrate ENIYFQS	area with substrate ENKYFQS	area with substrate ENNYFQS
K7H	–	–	–	0.0693	–	–	0.09	–	–	0.0612
K7V	–	0.0663	0.0602	0.0604	0.0673	0.0594	0.0695	–	–	0.0646
K7Y	–	0.048	–	0.0609	0.06	–	0.0628	0.106	–	0.0571
P9N	–	0.0608	–	0.0578	0.0504	–	0.061	–	–	–
D11T	–	–	–	0.0569	–	–	–	–	–	–
E25S	–	–	–	0.0764	0.0708	0.0669	0.0524	0.127	0.0452	0.009
T31I	–	0.0657	0.0447	0.0625	–	0.0689	0.0639	–	–	–
Y34H	–	0.0523	0.0599	0.0855	–	–	0.0496	–	–	–
G35T	–	0.0684	0.0467	0.0474	0.0488	0.0684	0.0611	–	0.0299	–
F38E	–	0.0481	–	0.051	–	–	–	–	–	–
R51N	–	0.0828	–	0.0755	–	–	–	–	–	–
R51S	–	–	0.0697	0.0717	–	–	0.062	–	–	–
V57Q	–	–	–	0.0662	–	–	0.0378	–	–	0.0737
V58L	–	–	0.0561	0.0666	–	0.0584	–	–	0.065	–
Q59N	–	–	0.0739	0.0667	0.0583	0.0504	–	0.0997	–	–
K66A	–	–	–	0.0631	–	–	–	–	0.0736	–
K66E	–	–	0.0638	0.0693	–	0.0646	0.0554	–	–	–
K66H	–	0.0781	0.0706	0.0734	0.0669	–	–	–	–	0.0578
D69F	–	–	0.0588	0.0493	0.067	0.0534	–	–	0.067	–

Same assay, conditions: temperature: 34 °C; time window: 0-4 h after rhamnose induction

Variant	area with substrate ENPYFQS	area with substrate ENRYFQS	area with substrate ENSYFQS	area with substrate ENTYFQS	area with substrate ENYYFQS	area with substrate ENVYFQS	area with substrate ENWYFQS	area with substrate ENHYFQS	area with substrate ENMYFQS
H215K	0.0681	0.0625	0.06	0.0506	0.0577	–	–	–	–
H215L	0.0591	0.0559	0.0541	0.0658	0.0542	0.0791	0.0398	–	–
F218I	0.0584	–	0.0564	0.075	0.0508	–	–	0.0698	–
F218V	–	0.0631	0.0698	0.0622	–	–	0.0674	–	–
P222L	0.0646	0.0819	–	0.0692	–	–	–	0.0778	–
Q227D	0.0203	–	0.0685	–	0.039	0.0907	0.0598	0.0461	–
P228R	–	–	–	0.0763	0.0622	0.0683	–	0.0711	0.0898
P228S	0.0577	–	0.0514	0.0577	0.0691	0.0893	–	–	0.0876
V229D	–	–	0.0729	–	–	–	–	0.064	–
V229R	0.0276	0.0414	–	0.0823	0.059	–	–	–	–
E231I	0.0576	0.0666	0.0589	–	–	–	0.0066	0.0628	0.0763
T233Y	–	0.059	0.0628	–	–	0.0708	–	0.0608	0.0929
L235F	–	0.0563	0.0456	–	–	0.0683	–	–	–
L235P	0.0462	0.0613	–	–	0.0523	0.0787	0.0386	–	0.0843
L235T	0.0725	–	0.0579	0.0383	–	0.0848	–	–	–
G2I	0.0457	–	0.053	–	–	–	–	–	0.116
G2K	0.0409	0.0553	–	–	0.0578	0.121	–	–	–
E3V	–	–	–	0.0617	–	–	–	0.0593	–

Variant	area with substrate ENPYFQS	area with substrate ENRYFQS	area with substrate ENSYFQS	area with substrate ENTYFQS	area with substrate ENYYFQS	area with substrate ENVYFQS	area with substrate ENWYFQS	area with substrate ENHYFQS	area with substrate ENMYFQS
K7H	0.0909	–	–	–	–	0.0778	–	–	–
K7V	0.0538	0.0735	0.0628	0.0636	0.0528	–	0.0645	–	–
K7Y	–	–	–	0.058	–	–	–	–	0.0846
P9N	–	–	–	–	–	–	–	0.0505	–
D11T	0.0564	–	0.0608	–	–	0.0998	–	0.0479	0.0713
E25S	–	0.0531	0.0755	0.0644	–	0.0753	0.0501	0.0553	0.0893
T31I	–	–	0.0519	–	0.0597	0.0972	–	–	–
Y34H	–	–	0.061	–	–	–	–	0.0704	–
G35T	–	0.0369	–	0.0509	0.0666	–	0.0396	–	–
R51N	–	–	–	–	–	0.0863	–	–	–
R51S	–	–	–	0.053	–	–	–	–	–
V57Q	–	–	–	0.0607	–	–	–	–	–
V58L	–	–	–	–	–	0.0642	0.0612	0.0618	–
Q59N	–	0.0563	–	–	0.0449	0.0952	–	0.0717	–
K66A	–	0.0781	–	–	–	–	–	0.063	–
K66E	0.0547	0.056	0.051	–	0.0526	0.0815	–	0.0603	–
K66H	–	0.0612	0.0742	0.0596	–	–	–	–	–
D69F	–	0.0576	0.0645	0.0622	–	–	–	0.0654	–
